These are yes or no findings as the source states them, for the method shown. Binding seen in cells or lysates may run through a third protein.
Experiments:
Details in all cases: remark: other sources report otherwise
[1] = target: T1, Sp1 (specificity protein 1) (human (endogenous in MCF7 and T47D)), P08047; experiment: co-IP; endogenous proteins, MCF7 whole cell lysates, Protein A sepharose; mouse and rabbit IgG as negative controls; Western blot
[2] = target: T2, ß-catenin (human (endogenous in MCF7 and T47D)), P35222; experiment: as above
T2 chain: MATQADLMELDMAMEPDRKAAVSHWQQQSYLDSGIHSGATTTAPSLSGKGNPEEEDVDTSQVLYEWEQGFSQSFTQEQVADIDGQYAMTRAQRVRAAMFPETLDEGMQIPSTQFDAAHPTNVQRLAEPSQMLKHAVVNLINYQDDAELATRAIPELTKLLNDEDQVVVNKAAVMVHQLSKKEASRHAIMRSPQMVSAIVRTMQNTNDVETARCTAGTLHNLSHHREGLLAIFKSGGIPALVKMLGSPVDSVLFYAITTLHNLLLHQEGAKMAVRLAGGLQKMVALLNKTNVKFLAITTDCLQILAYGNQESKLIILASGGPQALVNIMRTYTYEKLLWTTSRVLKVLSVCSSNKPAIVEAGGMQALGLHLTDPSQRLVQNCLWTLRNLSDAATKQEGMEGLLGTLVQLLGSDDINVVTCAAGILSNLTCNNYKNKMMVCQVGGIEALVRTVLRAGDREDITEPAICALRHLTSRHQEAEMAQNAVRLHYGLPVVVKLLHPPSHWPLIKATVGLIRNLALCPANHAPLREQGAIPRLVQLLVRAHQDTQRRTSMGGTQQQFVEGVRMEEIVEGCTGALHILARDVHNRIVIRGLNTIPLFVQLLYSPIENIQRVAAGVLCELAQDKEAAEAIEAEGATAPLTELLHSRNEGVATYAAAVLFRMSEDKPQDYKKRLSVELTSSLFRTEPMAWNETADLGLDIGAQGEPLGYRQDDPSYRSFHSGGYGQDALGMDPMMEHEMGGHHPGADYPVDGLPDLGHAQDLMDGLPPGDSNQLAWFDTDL

[3] = target: T1, Sp1 (specificity protein 1) (human …); experiment: co-IP; endogenous proteins, T47D whole cell lysates, Protein A sepharose; Western blot
[4] = target: T2, ß-catenin (human (endogenous in MCF7 …)); experiment: as above

Measured: binding

B1: estrogen receptor alpha (ER), P03372 1-595 (protein)
chain: MTMTLHTKASGMALLHQIQGNELEPLNRPQLKIPLERPLGEVYLDSSKPAVYNYPEGAAYEFNAAAAANAQVYGQTGLPYGPGSEAAAFGSNGLGGFPPLNSVSPSPLMLLHPPPQLSPFLQPHGQQVPYYLENEPSGYTVREAGPPAFYRPNSDNRRQGGRERLASTNDKGSMAMESAKETRYCAVCNDYASGYHYGVWSCEGCKAFFKRSIQGHNDYMCPATNQCTIDKNRRKSCQACRLRKCYEVGMMKGGIRKDRRGGRMLKHKRQRDDGEGRGEVGSAGDMRAANLWPSPLMIKRSKKNSLALSLTADQMVSALLDAEPPILYSEYDPTRPFSEASMMGLLTNLADRELVHMINWAKRVPGFVDLTLHDQVHLLECAWLEILMIGLVWRSMEHPGKLLFAPNLLLDRNQGKCVEGMVEIFDMLLATSSRFRMMNLQGEEFVCLKSIILLNSGVYTFLSSTLKSLEEKDHIHRVLDKITDTLIHLMAKAGLTLQQQHQRLAQLLLILSHIRHMSNKGMEHLYSMKCKNVVPLYDLLLEMLDAHRLHAPTSRGGASVEETDQSHLATAGSTSSHSLQKYYITGEAEGFPATV
no binding: [1] | [2] | [3] | [4]
